How the values were obtained:
human IL2Rα-Fc = biological target: T1, human IL2Rα-Fc (human, UniProt P01589 22-240); assay: SPR; Biacore X-100; CM5 chip coated with anti-human Fc antibody (5000 RU); IL2Rα-Fc, IL2Rβ-Fc or a 1:1 mixture of each captured at 10 ug/mL in HBSP with 0.1 mg/mL BSA; analytes in 5 3-fold dilutions from 100 nM (IL2) or 300 nM (NKTR-214-AC), 3 minutes each; fit to a 1:1 model, Kd from kd/ka; conditions: both partners purified
T1 construct: IL2 receptor alpha subunit, human; Probably the extracellular domain fused to Fc; Captured by anti-human Fc antibody; also called IL2 receptor alpha subunit; source: bought: Symansis
T1 sequence (looked up): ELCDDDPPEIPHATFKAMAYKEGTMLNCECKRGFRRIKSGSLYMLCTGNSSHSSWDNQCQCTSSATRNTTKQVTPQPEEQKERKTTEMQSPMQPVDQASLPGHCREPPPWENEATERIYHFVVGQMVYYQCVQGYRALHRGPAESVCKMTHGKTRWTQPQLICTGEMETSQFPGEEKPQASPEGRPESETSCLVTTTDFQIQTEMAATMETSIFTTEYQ

human IL2Rβ-Fc = biological target: T2, human IL2Rβ-Fc (human, UniProt P14784 27-240); assay: as above; conditions: both partners purified
T2 construct: IL2 receptor beta subunit, human; Probably the extracellular domain fused to Fc; Captured by anti-human Fc antibody; also called IL2 receptor beta subunit; source: bought: Symansis
T2 sequence (looked up): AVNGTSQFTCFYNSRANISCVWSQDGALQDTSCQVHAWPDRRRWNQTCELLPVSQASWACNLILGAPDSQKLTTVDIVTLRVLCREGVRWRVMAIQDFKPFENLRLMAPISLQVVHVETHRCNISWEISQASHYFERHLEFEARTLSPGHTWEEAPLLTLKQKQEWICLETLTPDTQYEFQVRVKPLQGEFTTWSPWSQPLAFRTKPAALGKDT

- Kd (human IL2Rα-Fc): 8.57 nM
- koff (human IL2Rα-Fc): 0.415 s⁻¹
- kon (human IL2Rα-Fc): 4.84e+07 M⁻¹ s⁻¹
- Kd (human IL2Rβ-Fc): 239 nM
- koff (human IL2Rβ-Fc): 0.301 s⁻¹
- kon (human IL2Rβ-Fc): 1.26e+06 M⁻¹ s⁻¹
B1: interleukin-2 (IL2), aldesleukin sequence (ligand)
chain: not shown
notes: interleukin-2, human; also called free-IL2; recombinant interleukin-2 human

From paper PMC5497954 (PLoS ONE, 2017)
